Source: paper PMC4336329 (PLoS ONE, 2015)
The whole screen tested about 310,000 compounds, of which about 2,200 (0.71%) showed an effect of 50% or more. Effects have a minus sign here. The list shows a part of the results.

target: human ether-à-go-go-related gene (hERG) potassium channel (human, UniProt Q12809); experiment: primary screen, population patch clamp on CHO cells stably expressing hERG
Sequence (Q12809 whole entry, looked up): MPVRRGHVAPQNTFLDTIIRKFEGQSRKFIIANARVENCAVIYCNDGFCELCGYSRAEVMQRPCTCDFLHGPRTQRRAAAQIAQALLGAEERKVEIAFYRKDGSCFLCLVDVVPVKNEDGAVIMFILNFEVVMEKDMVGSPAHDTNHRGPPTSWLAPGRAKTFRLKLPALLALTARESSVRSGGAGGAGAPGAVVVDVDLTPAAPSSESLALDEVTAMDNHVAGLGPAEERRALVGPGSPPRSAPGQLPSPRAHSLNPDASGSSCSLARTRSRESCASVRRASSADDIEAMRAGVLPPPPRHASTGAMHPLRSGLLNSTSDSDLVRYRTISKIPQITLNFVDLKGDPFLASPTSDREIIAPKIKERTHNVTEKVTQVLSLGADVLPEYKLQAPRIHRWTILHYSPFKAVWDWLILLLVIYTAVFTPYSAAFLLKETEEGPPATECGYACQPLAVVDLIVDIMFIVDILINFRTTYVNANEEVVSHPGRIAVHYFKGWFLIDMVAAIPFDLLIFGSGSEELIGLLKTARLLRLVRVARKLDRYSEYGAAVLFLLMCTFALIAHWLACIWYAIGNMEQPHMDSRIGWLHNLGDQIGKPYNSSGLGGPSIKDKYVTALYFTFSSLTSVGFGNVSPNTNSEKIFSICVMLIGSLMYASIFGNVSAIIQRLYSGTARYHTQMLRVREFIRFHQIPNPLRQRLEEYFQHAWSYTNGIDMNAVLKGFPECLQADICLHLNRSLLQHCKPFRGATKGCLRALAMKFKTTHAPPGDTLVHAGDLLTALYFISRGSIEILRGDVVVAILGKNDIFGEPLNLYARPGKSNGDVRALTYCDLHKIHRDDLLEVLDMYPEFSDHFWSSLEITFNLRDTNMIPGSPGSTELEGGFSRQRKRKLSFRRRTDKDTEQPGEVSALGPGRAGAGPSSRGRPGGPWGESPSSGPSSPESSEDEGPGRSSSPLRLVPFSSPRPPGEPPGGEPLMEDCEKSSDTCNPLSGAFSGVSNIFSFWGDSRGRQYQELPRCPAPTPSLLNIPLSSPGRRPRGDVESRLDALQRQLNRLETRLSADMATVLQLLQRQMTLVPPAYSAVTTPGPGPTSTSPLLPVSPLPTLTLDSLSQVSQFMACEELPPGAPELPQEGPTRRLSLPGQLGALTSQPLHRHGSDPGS

SMILES	hERG current change (%, negative = inhibition) at 1uM [%]
COc1cccc(CC(=O)OCC(=O)NCCc2ccc(F)cc2)c1	13.2
COc1ccc(C2C(C(C)=O)=C(C)Nc3ncnn32)cc1[N+](=O)[O-] (centres unmarked)	18.3
CNc1nc(SC)nc(N2CCOCC2)n1	13.1
COc1ccc(S(=O)(=O)N2CCOC2CNC(=O)C(=O)NCC(C)C)cc1 (centres unmarked)	6.98
CCOc1ccc(NC(=O)C2Cc3ccccc3CN2S(=O)(=O)CC)cc1 (centres unmarked)	15.4
CS(=O)(=O)c1ccc(C(=O)N2CCc3ccccc3C2)cc1	3.66
Cc1ccc(SCc2cc(=O)[nH]c(/N=C(\N)Nc3ccccc3Sc3ccccc3)n2)cc1	2.43
Cc1ccc(Nc2nc(CSc3nnc(-c4cccnc4)n3-c3ccccc3F)cs2)cc1	-15.7
CCOC(=O)CN1C(=O)C(=O)c2cccc(C)c21	10.9
CCCNc1nc2c(c(=O)[nH]c(=O)n2C)n1Cc1ccc(F)cc1	1.92
Cc1cc(C)c2oc(-c3ccc(C)c(NC(=S)NC(=O)/C=C/c4ccco4)c3)nc2c1	15.3
COC(=O)c1cc(C(=O)c2c(C)cc3ccccn23)cc([N+](=O)[O-])c1	11
Cc1onc(-c2c(F)cccc2Cl)c1C(=O)N1C=CC(C(F)(F)Cl)=NCC1	1.73
O=C(NCCc1ccccc1)c1cccc(S(=O)(=O)N2CCCCC2)c1	8.36
CCN(CC)CCNc1nc(C(F)(F)F)nc2c1nnn2Cc1ccccc1	1.95
Fc1ccc(OCc2nn[nH]n2)c(F)c1	15.4
CC(C)(C)NC(=O)CN(CCN1CCOCC1)C(=O)CNS(=O)(=O)c1ccccc1	10.3
COC(=O)N1CC(=O)N(OC)C1c1ccc(Cl)cc1Cl (centres unmarked)	8.83
O=C(CCn1cnc2ccccc2c1=O)Nc1cccc(Cl)c1	5.46
O=C(NNC(=S)Nc1cccc(Cl)c1)c1ccccc1	16.4
Cc1cc(C)nc(NS(=O)(=O)c2ccc(Br)s2)c1.Cl	8.22
O=C(NC1CCCCC1)c1cc(C2CC2)nn1-c1ccccc1	4.03
CCC(=NC(C)c1ccccc1)c1c(O)[nH]c(=O)[nH]c1=O (centres unmarked)	9.41

SMILES	hERG current change (%, negative = inhibition) at 1uM [%]
CCC(=O)NC1CC2CCCC(C1)N2Cc1ccc(C)cc1 (centres unmarked)	-11.9
CC(C)CNC(=O)c1cccc(NC(=O)CSc2ccccc2)c1	-1.35
CCOC(=O)C1=C(c2ccccc2)NC(=O)NC1c1cc(OC)c(OC)c(OC)c1 (centres unmarked)	7.95
Cc1ccc(CCNS(=O)(=O)c2c(C)nc3sccn3c2=O)cc1	-4.83
O=C(Nc1ccccc1OC(F)F)c1ccccc1	10.1
Cc1ccc2nc(SC(C(=O)c3ccccc3)c3ccccc3)nc(C)c2c1 (centres unmarked)	9.59
COC(=O)c1ccc(NC(=O)c2ccccc2CC[N+](=O)[O-])cc1	5.45
Cc1cc(-c2nnco2)c(C)n1-c1ccccc1	2.49
O=C(NCCCN1CCCC1=O)c1c(O)nc2ccccn2c1=O	29
COc1cc(C(C(=O)NC(C)(C)C)N(Cc2ccccc2)C(=O)c2cnccn2)cc(OC)c1OC (centres unmarked)	14.6
Cn1cccc1/C=C1\SC(=Nc2ccccc2)NC1=O	19.8
CCOc1ccccc1C1NC(=O)NC(C)=C1C(=O)OCc1ccccc1 (centres unmarked)	9.03
C=CCNC(=S)N(CC=C)C1CCS(=O)(=O)C1 (centres unmarked)	8.6
CC(=O)Nc1ccc(OCC(O)CN2CCN(c3cccc(Cl)c3)CC2)cc1 (centres unmarked)	-4.28
COc1cccc(N(CC(=O)NC2CCCCC2)C(=O)CCC(=O)Nc2nccs2)c1	8.8
COc1cc2c(C(=O)NCCCOC(C)C)cn(CC(C)C)c(=O)c2cc1OC	13.3
O=C(C(Cc1ccccc1)n1cccc1)N1CCCCCC1 (centres unmarked)	13.6
CC(Sc1nnc(-c2ccncc2)n1C)C(=O)Nc1ccc(N2CCOCC2)cc1 (centres unmarked)	4.97
COc1ccc(NC(=O)C2CCN(C(=O)c3cccs3)CC2)c(OC)c1	17.4
Cc1ccc(-c2ccc(OCC(=O)N3CCOCC3)cc2)cc1	13.3
CN(C(=O)Cn1nnc(-c2ccc(F)cc2)n1)C1CCS(=O)(=O)C1 (centres unmarked)	9.88
CN(C)c1ccc(C=C2C(=O)NC(=S)NC2=O)cc1[N+](=O)[O-]	16.2
Cc1ccc(CCN2CCN=C2Nc2ccccc2)cc1	-2.73

SMILES	hERG current change (%, negative = inhibition) at 1uM [%]
CC(CNC(=O)c1ccc(-c2ccccc2)cc1)CN(C)C (centres unmarked)	-2.8
Cc1cc2cc(C(c3nnnn3C(C)(C)C)N(Cc3ccco3)CC3CCCO3)c(=O)[nH]c2cc1C (centres unmarked)	10.4
NCCc1nnc(SCC(=O)c2ccc(Cl)cc2)o1	17.6
COC(=O)CSc1nc2[nH]ncc2c(=O)[nH]1	6.8
CCc1cc2c(C)cc(=O)oc2cc1OC(=O)C1CCCN1C(=O)OC(C)(C)C (centres unmarked)	4.43
O=C(COC(=O)/C=C/c1ccc(Cl)cc1)Nc1ccccc1	2.87
CCN(CC)c1ccc(/C=N/NC(=O)Cc2cccs2)cc1	9.03
CCN(C(=O)c1cn(C)c(=O)c2cc(OC)c(OC)cc12)c1cc(OC)ccc1OC	9.42
Oc1ccccc1C(Nc1nccs1)c1ccc2cccnc2c1O (centres unmarked)	13.7
COc1ccc(CN2CCC(=O)N([C@H](CO)CC(C)C)CC2)cc1OC	5.44
COc1ccc(C(C(=O)NC(C)(C)C)N(C(=O)Cn2nnc3ccccc32)c2ccc(C(C)=O)cc2)cc1O (centres unmarked)	-0.531
CCOC(=O)N1CCN(C(=O)CCN2C(=O)/C(=C\c3ccccc3OC)SC2=S)CC1	9.05
CC(Oc1ccccc1[N+](=O)[O-])C(=O)N/N=C/c1ccoc1 (centres unmarked)	12.7
O=C1NC(=O)C(CC(=O)N(c2ccccc2)C2(C(=O)NC3CCCC3)CCCCC2)N1 (centres unmarked)	0.897
O=C(CN(CCc1ccccc1)S(=O)(=O)c1ccc(Br)cc1)N/N=C/c1ccc2c(c1)OCO2	8.79
CC(=O)N(/N=C1\Sc2ccccc2C1=O)c1cccc(C)c1	10.5
Cc1ccc(CSc2nc3c(c(SCC(=O)O)n2)CCCC3)cc1	5.16
COc1ccc(NC(=O)Nc2ccccc2C)c(OC)c1	12.4
O=C(Nc1cccc(Cl)c1)c1cnccn1	13.4
CCN(CC)S(=O)(=O)c1ccc(N2CCOCC2)c(NC(=O)c2ccc(NC(C)=O)cc2)c1	11.1
COCCNC(=O)CCc1c(C)nc2nc(-c3cc(OC)cc(OC)c3)nn2c1C	13.1
COc1ccc(NC(=O)Nc2cccc3ccccc23)cc1S(N)(=O)=O	13.9
Cc1ccc(C2CN(c3ccccc3)CC2C(=O)c2ccc(F)cc2)cc1 (centres unmarked)	-13.9

SMILES	hERG current change (%, negative = inhibition) at 1uM [%]
C=Cn1c(C(=O)O)ccc1-c1ccc(CC)cc1	11
CCOC(=O)c1c(C)c(-c2ccccc2)n(CC(=O)N2CCCC2)c1C	7.93
CC(C)C(=O)N(c1cc2sc(=O)oc2c2ccccc12)S(=O)(=O)c1cccs1	12.4
Cc1cc(C)cc(OCC(=O)N/N=C/c2ccc([N+](=O)[O-])o2)c1	1.66
CC12C=CC(=O)C=C1CCC1C2C(=O)C[C@@]2(C)C1CCC2(O)C(=O)CO (some centres unmarked)	20.9
CC(=O)[N-]S(=O)(=O)c1ccc(N)cc1.O.[Na+]	14.7
CCSc1nc2c(c(-c3ccc(C)o3)c1C#N)CCCC2	12.3
Cc1nnn(C23CC4CC(CC(CC(=O)Nc5ccc(C)c(Cl)c5)(C4)C2)C3)n1	11
Cc1c(NC(=S)NC(NC(=O)CC(C)C)C(Cl)(Cl)Cl)c(=O)n(-c2ccccc2)n1C (centres unmarked)	9.92
CC(C(=O)OCc1nnc(-c2ccccc2)o1)N1C(=O)C2CCCCC2C1=O (centres unmarked)	7.48
COc1ccc(/C=C2\SC(=S)N(Cc3cccnc3)C2=O)cc1C	-1.52
CCOC(=O)c1oc2ccc(Br)cc2c1NC(=O)CN1CCN(C)CC1	-33.8
O=CN/N=C/c1c(O)ccc2ccccc12	12.3
Cc1ccc(C(=O)COC(=O)c2cc(Cl)nc3ccccc23)cc1C	10.3
Cc1nc(N2CCCCC2)sc1C(=O)c1ccc(SCCO)c([N+](=O)[O-])c1	3.58
Cc1ccc(F)cc1NC(=S)NCCc1ccccc1	6.46
COc1ccc(S(=O)(=O)NCc2ccccn2)cc1NC(=O)c1ccccc1F	13.2
CCOC(=O)COc1cccc2c(=O)n(CC(=O)NCc3ccc4c(c3)OCO4)ccc12	5.88
O=C(Nc1ccc(S(=O)(=O)Nc2nccs2)cc1)c1c(F)c(F)c(F)c(F)c1F	-13.5
Cc1ccc(S(=O)(=O)N/N=c2\oc3ccccc3cc2C(=O)Nc2cccc(C)c2)cc1	-36.5
